The list shows a part of the results.
These sequences were tested against T1, MBP-FoxP1dN (Mus musculus, UniProt P58462 326-579) (assay: PD-seq (MBP pull-down with sequencing); 20 mM Tris-HCl pH 7.5, 100 mM NaCl, 1.5 mM MgCl2, 0.4 uM protein, 0.1 uM dsDNA library, 30 min, room temperature, amylose pull-down; high values mean tight binding). Conditions: protein: recombinant; tags: His6-MBP; chain copies: 2; dsDNA, one strand shown.
T1 sequence: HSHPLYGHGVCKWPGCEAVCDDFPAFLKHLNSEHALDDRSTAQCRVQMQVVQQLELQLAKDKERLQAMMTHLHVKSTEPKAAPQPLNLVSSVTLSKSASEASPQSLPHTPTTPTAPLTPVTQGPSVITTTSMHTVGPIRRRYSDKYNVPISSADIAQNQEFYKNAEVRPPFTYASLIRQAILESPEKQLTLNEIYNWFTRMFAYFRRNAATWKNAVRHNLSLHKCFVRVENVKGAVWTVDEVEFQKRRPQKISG
How it was run: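 In Tris pH 7.5 buffer with NaCl and MgCl2, 0.4 µM His6-MBP-tagged mouse FoxP3 or FoxP1 fragment lacking the N-terminus, from E. coli, met 0.1 µM Klenow-filled double-stranded degenerate DNA library for 30 min at room temperature. Three washes on amylose resin followed capture of the complexes, then proteinase K release of DNA, PCR barcoding and Illumina sequencing. Binding is taken as pooled-replicate reads-per-million enrichment of pull-down relative to input.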

| Sequence | binding signal |
| --- | --- |
| GATGATTGTTCTCCCAGCTGATGAATTTGAGCAGTCGAGTAAACAAATTTTCCTAATCTTTCTGTTCAAGCGCCATCTAC | 0.786 RPM ratio (pull-down/input) |
| GATGATTGTTCTCCCAGCTGATGAATTCGAATGCTCGAGTAAACAAATTTTCCTAATCTTTCTGTTCAAGCGCCATCTAC | 0.993 RPM ratio (pull-down/input) |
| GATGATTGTTCTCCCAGCTGATGAATTTTAACGATCGAGTAAACAAATTTTCCTAATCTTTCTGTTCAAGCGCCATCTAC | 0.89 RPM ratio (pull-down/input) |
| GATGATTGTTCTCCCAGCTGATGAATTTGCGGGGTCGAGTAAACAAATTTTCCTAATCTTTCTGTTCAAGCGCCATCTAC | 0.86 RPM ratio (pull-down/input) |
| GATGATTGTTCTCCCAGCTGATGAATTTACGGCCTCGAGTAAACAAATTTTCCTAATCTTTCTGTTCAAGCGCCATCTAC | 1.03 RPM ratio (pull-down/input) |
| GATGATTGTTCTCCCAGCTGATGAATTACTTCACTCGAGTAAACAAATTTTCCTAATCTTTCTGTTCAAGCGCCATCTAC | 1.09 RPM ratio (pull-down/input) |
| GATGATTGTTCTCCCAGCTGATGAATTTAAGTCCTCGAGTAAACAAATTTTCCTAATCTTTCTGTTCAAGCGCCATCTAC | 0.798 RPM ratio (pull-down/input) |
| GATGATTGTTCTCCCAGCTGATGAATTTATCCCCTCGAGTAAACAAATTTTCCTAATCTTTCTGTTCAAGCGCCATCTAC | 0.996 RPM ratio (pull-down/input) |
| GATGATTGTTCTCCCAGCTGATGAATTTGTTTATTCGAGTAAACAAATTTTCCTAATCTTTCTGTTCAAGCGCCATCTAC | 2.89 RPM ratio (pull-down/input) |
| GATGATTGTTCTCCCAGCTGATGAATTGTAGAGGTCGAGTAAACAAATTTTCCTAATCTTTCTGTTCAAGCGCCATCTAC | 0.831 RPM ratio (pull-down/input) |
| GATGATTGTTCTCCCAGCTGATGAATTCCGGCGGTCGAGTAAACAAATTTTCCTAATCTTTCTGTTCAAGCGCCATCTAC | 0.688 RPM ratio (pull-down/input) |
| GATGATTGTTCTCCCAGCTGATGAATTAGCCCCTTCGAGTAAACAAATTTTCCTAATCTTTCTGTTCAAGCGCCATCTAC | 0.88 RPM ratio (pull-down/input) |
| GATGATTGTTCTCCCAGCTGATGAATTTGTGTAGTCGAGTAAACAAATTTTCCTAATCTTTCTGTTCAAGCGCCATCTAC | 1.46 RPM ratio (pull-down/input) |
| GATGATTGTTCTCCCAGCTGATGAATTCAGTCTGTCGAGTAAACAAATTTTCCTAATCTTTCTGTTCAAGCGCCATCTAC | 0.821 RPM ratio (pull-down/input) |
| GATGATTGTTCTCCCAGCTGATGAATTACACCTTTCGAGTAAACAAATTTTCCTAATCTTTCTGTTCAAGCGCCATCTAC | 1.24 RPM ratio (pull-down/input) |
| GATGATTGTTCTCCCAGCTGATGAATTTATTGCCTCGAGTAAACAAATTTTCCTAATCTTTCTGTTCAAGCGCCATCTAC | 1.25 RPM ratio (pull-down/input) |

| Sequence | binding signal |
| --- | --- |
| GATGATTGTTCTCCCAGCTGATGAATTGGGGTCTTCGAGTAAACAAATTTTCCTAATCTTTCTGTTCAAGCGCCATCTAC | 0.899 RPM ratio (pull-down/input) |
| GATGATTGTTCTCCCAGCTGATGAATTGCAACCTTCGAGTAAACAAATTTTCCTAATCTTTCTGTTCAAGCGCCATCTAC | 1.43 RPM ratio (pull-down/input) |
| GATGATTGTTCTCCCAGCTGATGAATTCTAGGGTTCGAGTAAACAAATTTTCCTAATCTTTCTGTTCAAGCGCCATCTAC | 0.785 RPM ratio (pull-down/input) |
| GATGATTGTTCTCCCAGCTGATGAATTAGCCCCCTCGAGTAAACAAATTTTCCTAATCTTTCTGTTCAAGCGCCATCTAC | 0.831 RPM ratio (pull-down/input) |
| GATGATTGTTCTCCCAGCTGATGAATTGCGCAGCTCGAGTAAACAAATTTTCCTAATCTTTCTGTTCAAGCGCCATCTAC | 0.996 RPM ratio (pull-down/input) |
| GATGATTGTTCTCCCAGCTGATGAATTATGTCACTCGAGTAAACAAATTTTCCTAATCTTTCTGTTCAAGCGCCATCTAC | 1.21 RPM ratio (pull-down/input) |
| GATGATTGTTCTCCCAGCTGATGAATTGCTGTCGTCGAGTAAACAAATTTTCCTAATCTTTCTGTTCAAGCGCCATCTAC | 1.11 RPM ratio (pull-down/input) |
| GATGATTGTTCTCCCAGCTGATGAATTGCAACGTTCGAGTAAACAAATTTTCCTAATCTTTCTGTTCAAGCGCCATCTAC | 1.33 RPM ratio (pull-down/input) |
| GATGATTGTTCTCCCAGCTGATGAATTGGTGCAGTCGAGTAAACAAATTTTCCTAATCTTTCTGTTCAAGCGCCATCTAC | 0.989 RPM ratio (pull-down/input) |
| GATGATTGTTCTCCCAGCTGATGAATTTCGCGTCTCGAGTAAACAAATTTTCCTAATCTTTCTGTTCAAGCGCCATCTAC | 0.786 RPM ratio (pull-down/input) |
| GATGATTGTTCTCCCAGCTGATGAATTTTGGACGTCGAGTAAACAAATTTTCCTAATCTTTCTGTTCAAGCGCCATCTAC | 0.939 RPM ratio (pull-down/input) |
| GATGATTGTTCTCCCAGCTGATGAATTGAGGGCCTCGAGTAAACAAATTTTCCTAATCTTTCTGTTCAAGCGCCATCTAC | 0.807 RPM ratio (pull-down/input) |
| GATGATTGTTCTCCCAGCTGATGAATTGGTTGCTTCGAGTAAACAAATTTTCCTAATCTTTCTGTTCAAGCGCCATCTAC | 1.07 RPM ratio (pull-down/input) |
| GATGATTGTTCTCCCAGCTGATGAATTGGCACGATCGAGTAAACAAATTTTCCTAATCTTTCTGTTCAAGCGCCATCTAC | 0.878 RPM ratio (pull-down/input) |
| GATGATTGTTCTCCCAGCTGATGAATTGGCTCAGTCGAGTAAACAAATTTTCCTAATCTTTCTGTTCAAGCGCCATCTAC | 0.766 RPM ratio (pull-down/input) |
